# The supplement of paper PMC9433436
# ± gives the standard deviation of the averaged measurements. In all, about 4,100 sequences were measured (“relative kcat/Km (krel) vs genomic leader AAAGAU”: median about 1.7, highest 2% from about 6.5 on). The list shows a part of the results, in another mix than the full data.
# Biological target: T1, E. coli RNase P holoenzyme (M1 P RNA + rnpA protein) (UniProt P0A7Y8)
# T1 sequence: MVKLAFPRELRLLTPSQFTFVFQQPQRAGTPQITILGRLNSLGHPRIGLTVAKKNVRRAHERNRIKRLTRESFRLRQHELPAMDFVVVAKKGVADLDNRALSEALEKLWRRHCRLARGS
# Assay: relative kcat/Km (krel) vs genomic leader AAAGAU (relative (reference leader = 1)); higher = faster RNase P cleavage
# Procedure: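 HTS-Kin: a pool of ptRNA-Met (21C construct) with all 4096 combinations of 5' leader nucleotides N(-6) to N(-1) was processed in vitro by E. coli RNase P (P RNA + rnpA/C5 protein) under multiple-turnover conditions at 37 C, pH 8, 17.5 mM MgCl2. Residual substrate was Illumina-sequenced at several fractions reacted, and relative kcat/Km (krel) was computed by internal competition kinetics, calibrated to the genomic leader (AAAGAU = 1). The listed hexamer is the varied N(-6)..N(-1) leader (DNA letters), and it sits between a fixed 5' stem-loop flank (GCAUGCACGAAAGUGCGUGCUAUGAA) and the mature tRNA-Met starting GGCUACGUAGCUCAGUUGG. Two technical replicates are averaged.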
# [1] = fraction of substrate reacted: ~9-10% (9.79% repeat 1, 9.1% repeat 2)
# [2] = fraction of substrate reacted: ~13-16% (15.68% repeat 1, 13.17% repeat 2)
# [3] = fraction of substrate reacted: ~26-29% (28.66% repeat 1, 26.4% repeat 2)
Sequence,relative kcat/Km [1],relative kcat/Km [2],relative kcat/Km [3]
TCGGAA,1.2 ± 1.2,1.23 ± 0.93,1.33 ± 0.09
CATGAC,3.37 ± 1.7,3.84 ± 1.1,4.61 ± 1.3
CTAACC,1.72 ± 1,1.02 ± 0.13,1.33 ± 0.47
TCTCTA,2.46 ± 0.58,2.15 ± 0.45,2.59 ± 1.1
GAGCCT,1.72 ± 0.7,1.57 ± 0.59,2.01 ± 0.96
GAACGA,2.48 ± 1.1,2.3816 ± 7.8e-05,3.08 ± 0.87
CGTTCC,2.71 ± 0.33,3.24 ± 1.6,4.59 ± 2.1
GGGCGG,0.411 ± 0.1,0.428 ± 0.31,1.13 ± 0.15
GATTTT,1.83 ± 0.22,2.66 ± 0.3,4.09 ± 1.4
TGAGGT,,,2.21 ± 0.55
ATCGTT,2.06 ± 1.1,2.08 ± 0.23,2.84 ± 1.1
ATCAGG,0.528 ± 0.016,,1.41 ± 0.062
ATCGAT,1.99 ± 0.67,3 ± 0.7,3.36 ± 1.2
TTGCAG,,,1.37 ± 0.19
AAGGTA,0.672 ± 0.17,,
GCCTTA,2.94 ± 1.2,3.35 ± 0.54,5.21 ± 1.5
ACGCCG,,,1.03 ± 0.27
GAGAAT,1.7 ± 1.1,2.37 ± 0.3,3.82 ± 1.4
AGCCGC,3.07 ± 1.3,2.5 ± 0.098,4.02 ± 1.1
GGCTAA,2.12 ± 0.85,2.32 ± 0.78,3.19 ± 0.8
CAAGAC,1.96 ± 0.11,2 ± 0.92,2.72 ± 0.92
GAAAAG,,,0.958 ± 0.54
GAGCTA,1.12 ± 0.23,0.367 ± 0.083,1.29 ± 0.63
CGAGAG,0.809 ± 0.14,,0.931 ± 0.1
TAAGAG,,0.587 ± 0.16,2 ± 0.57
AGTGAG,,0.583 ± 0.48,0.906 ± 0.36

Sequence,relative kcat/Km [1],relative kcat/Km [2],relative kcat/Km [3]
GCGATA,1.52 ± 0.59,1.51 ± 0.55,1.3 ± 0.22
AAGCAG,0.388 ± 0.27,,1.22 ± 0.47
CCGCAA,2.37 ± 1.4,1.91 ± 0.27,2.59 ± 0.5
GCACTA,1.73 ± 0.65,0.962 ± 0.041,1.81 ± 1.3
GGAAGG,0.692 ± 0.52,0.635 ± 0.14,1.44 ± 0.73
CGGAGA,1.25 ± 0.02,1.07 ± 1,1.81 ± 0.39
CTGTCC,0.844 ± 0.78,1.45 ± 0.52,2.28 ± 0.82
GACTGT,0.875 ± 0.79,1.18 ± 0.32,1.09 ± 0.23
TAGCTC,2.39 ± 1.3,2.26 ± 0.41,2.63 ± 0.76
ACGGAA,1.59 ± 0.25,1.923 ± 0.0075,1.49 ± 0.93
TGACAC,3.63 ± 1.5,4.21 ± 0.43,5.94 ± 2.2
GATATC,0.942 ± 0.075,1.42 ± 0.26,2.39 ± 0.44
TTTCGA,3.73 ± 2.1,3.93 ± 0.48,5.75 ± 1.8
GGGCTC,1.23 ± 0.8,,0.945 ± 0.2
CCGTCG,,0.981 ± 0.2,1.55 ± 0.7
TAGGCG,0.286 ± 0.26,,0.742 ± 0.13
CAGAGT,,,0.537 ± 0.3
TGAAAT,1.22 ± 0.26,2.22 ± 0.68,3.8 ± 1.3
GCGGAA,0.773 ± 0.073,1.02 ± 0.075,0.77 ± 0.11
CAAACC,1.98 ± 1.5,1.32 ± 0.45,1.1 ± 0.24
CGCCAG,1.79 ± 0.53,2.08 ± 1,3.05 ± 0.88
GTTCCA,1.15 ± 0.2,1.26 ± 0.4,1.84 ± 0.4
ACTAAG,1.74 ± 0.94,0.788 ± 0.28,1.59 ± 0.055
ACACCC,1.52 ± 0.034,1.78 ± 0.18,2.2 ± 1.1
GTTATC,2.26 ± 0.74,2.01 ± 0.18,2.99 ± 1.2
GTAGCT,1.18 ± 0.2,0.991 ± 0.27,1.38 ± 0.29

Sequence,relative kcat/Km [1],relative kcat/Km [2],relative kcat/Km [3]
AGCGTA,,1.21 ± 0.14,1.7 ± 0.53
CGTCGG,0.274 ± 0.14,,0.654 ± 0.34
GCGTTA,0.782 ± 0.046,0.972 ± 0.54,1.49 ± 0.11
ATTTGC,3.17 ± 0.9,3.69 ± 0.87,5.35 ± 1.6
CTAGTA,1.32 ± 0.52,0.841 ± 0.56,1.69 ± 0.87
CCGAGT,0.9 ± 0.24,0.883 ± 0.22,0.769 ± 0.58
CACACG,0.685 ± 0.67,,2.19 ± 0.16
CTTGGA,1.23 ± 1.1,1.2 ± 0.45,1.15 ± 0.8
CATCCA,1.79 ± 0.41,1.4 ± 0.24,2.42 ± 1.1
TAAGGA,,,1.04 ± 0.83
CCTCGA,1.95 ± 0.97,2.42 ± 0.15,3.44 ± 0.84
CCCTAT,3.137 ± 0.006,5.47 ± 1.1,7.09 ± 3.1
GCGTCC,1.32 ± 0.099,1.73 ± 0.52,2.64 ± 0.41
GGACAC,2.78 ± 2.7,2.55 ± 0.57,3.35 ± 1.3
ATCTAC,4.97 ± 1.4,6.58 ± 2,9.08 ± 4.5
AGATTG,,,1.32 ± 0.26
ACTGCC,1.78 ± 0.31,1.06 ± 0.47,1.7 ± 0.68
CCAGAA,1.22 ± 0.24,1.15 ± 0.94,1.77 ± 0.29
CTAGAG,1.59 ± 0.97,0.748 ± 0.22,1.43 ± 0.48
AATCAA,2.46 ± 1.6,2.43 ± 0.28,3.38 ± 1.1
CGTGTT,0.616 ± 0.59,1.06 ± 0.22,1.47 ± 0.9
GTGTTC,1.05 ± 0.15,0.422 ± 0.072,1.02 ± 0.17
GCTCAC,2.68 ± 1.5,2.67 ± 0.68,3.5 ± 1
TATATT,3.12 ± 1.4,3.21 ± 0.26,4.67 ± 2.2
ACCTCT,2.01 ± 0.77,2.54 ± 0.84,3.48 ± 1.1
AGATCC,2.035 ± 0.02,2.31 ± 0.73,3.01 ± 1.1

Sequence,relative kcat/Km [1],relative kcat/Km [2],relative kcat/Km [3]
CATAGT,,,1.22 ± 0.91
GGATTT,1.77 ± 0.24,1.91 ± 0.31,2.37 ± 1.3
GTTACG,,0.734 ± 0.59,2.38 ± 0.098
AAGGAC,0.653 ± 0.52,0.918 ± 0.69,1.12 ± 0.48
TGTCAT,3.5 ± 1.3,4.28 ± 1.1,6.84 ± 3.2
TCTTCC,2.29 ± 0.2,2.79 ± 1.1,3.55 ± 1.5
CCGCGC,2.23 ± 0.85,1.53 ± 0.98,1.76 ± 0.15
CCATTT,3.01 ± 0.74,3.3 ± 0.78,3.99 ± 1.6
TGGTCA,,0.637 ± 0.51,0.937 ± 0.37
GAATAA,2.88 ± 0.83,3.15 ± 0.5,4.29 ± 1.5
GAAATA,1.5 ± 1.3,1.4 ± 0.17,1.59 ± 0.32
GTAGTG,,,0.911 ± 0.15
CGAGAT,1.72 ± 1.4,1.26 ± 0.15,2.36 ± 0.57
CTTTTG,,,1.2 ± 0.39
GGACAA,0.879 ± 0.43,1.34 ± 0.47,2.59 ± 0.96
ATATGG,,,1.03 ± 0.96
GCGAAC,1.49 ± 0.72,1.56 ± 0.17,2.05 ± 0.32
TTGTTG,,,0.827 ± 0.79
AACTGC,1.95 ± 0.41,2.93 ± 0.36,3.68 ± 1.1
AATGGA,,,1.6 ± 1.1
GTCCTA,3.11 ± 1.4,3.47 ± 0.34,4.9 ± 1.2
GCGACA,0.951 ± 0.19,1.12 ± 0.15,1.41 ± 0.28
GGGTGA,,,0.657 ± 0.077
CGCTTC,2.21 ± 0.18,2.83 ± 1.1,4.57 ± 1.3
GAGATG,,,0.905 ± 0.069
ATTCGC,2.81 ± 0.77,3.32 ± 0.53,4.55 ± 1.5
